Our source for the Ki values is US20050004163A1, “3-(diarylmethylene)-8-azabicyclo[3.2.1]octane derivatives” (priority 2000, published 2005).

One assay deals with T1, δ-opioid receptor (Rattus norvegicus, UniProt P33533).
T1 construct: the forebrains are homogenized in Tris buffer in a Teflon®-glass homogenizer; from tissue; host or cells: forebrain of male Wistar rats (particulate membrane preparation)
T1 sequence (P33533 whole entry): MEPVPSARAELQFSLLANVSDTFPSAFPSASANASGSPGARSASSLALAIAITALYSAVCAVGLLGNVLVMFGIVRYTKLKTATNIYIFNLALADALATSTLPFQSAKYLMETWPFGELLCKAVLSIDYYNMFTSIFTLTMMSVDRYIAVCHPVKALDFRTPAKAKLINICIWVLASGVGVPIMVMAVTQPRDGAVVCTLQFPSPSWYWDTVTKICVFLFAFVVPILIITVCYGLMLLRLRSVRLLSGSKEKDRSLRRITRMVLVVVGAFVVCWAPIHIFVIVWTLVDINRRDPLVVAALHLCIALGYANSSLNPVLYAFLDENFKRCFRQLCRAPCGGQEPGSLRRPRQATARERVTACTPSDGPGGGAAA
The conditions noted are these: DOR binding Ki, rat brain δ opioid receptor binding; 10 nM solutions of the compounds.
`CCNC(=O)c1ccc(C(=C2CC3CCC(C2)N3Cc2nccs2)c2ccc(CC(N)C(=O)O)cc2)cc1` (stereo not shown) [Cpd 131] gave a Ki of 11.2 nM.
On to `CCNC(=O)c1ccc(C(=C2CC3CCC(C2)N3Cc2nccs2)c2ccc(CCC(=O)O)cc2)cc1` [Cpd 132], for which affinity was put at a Ki of 0.93 nM.
Take `CCNC(=O)c1ccc(C=C2CC3CCC(C2)N3Cc2nccs2)cc1` [Cpd 133]: the Ki came to 142 nM.
`CCNC(=O)c1ccc(C(=C2CC3CCC(C2)N3CCc2ccccc2)c2ccc([N+](=O)[O-])cc2)cc1` [Cpd 134]: the Ki stood at 10.5 nM.
Compound `CCNC(=O)c1ccc(C(=C2CC3CCC(C2)N3CC=C(C)C)c2ccc([N+](=O)[O-])cc2)cc1` [Cpd 136] displayed a Ki of 0.2 nM.
Still for that read-out and setting: the figure for `CCNC(=O)c1ccc(C(=C2CC3CCC(C2)N3CC=C(C)C)c2ccc(CCC(=O)O)cc2)cc1` [Cpd 137] is 1.52 nM; for `CCNC(=O)c1ccc(C(=C2CC3CCC(C2)N3Cc2ccoc2)c2ccc(S(N)(=O)=O)cc2)cc1` [Cpd 138] it is 15.9 nM; for `CCNC(=O)c1ccc(C(=C2CC3CCC(C2)N3Cc2ccsc2)c2ccc(S(N)(=O)=O)cc2)cc1` [Cpd 139] it is 0.33 nM.
In the case of `CCNC(=O)c1ccc(C(=C2CC3CCC(C2)N3Cc2nccs2)c2ccc(S(N)(=O)=O)cc2)cc1` [Cpd 140], affinity was put at a Ki of 9.38 nM.
In the case of `CCNC(=O)c1ccc(C(=C2CC3CCC(C2)N3Cc2cccs2)c2ccc(S(N)(=O)=O)cc2)cc1` [Cpd 141], affinity was put at a Ki of 0.05 nM.
Compound `CCNC(=O)c1ccc(C(=C2CC3CCC(C2)N3CC=C(C)C)c2ccc(S(N)(=O)=O)cc2)cc1` [Cpd 142] yielded a Ki of 1.2 nM.
As for `CCNC(=O)c1ccc(C(C#N)=C2CC3CCC(C2)N3Cc2ccoc2)cc1` [Cpd 143], the affinity corresponds to a Ki of 0.3 nM.

The assay is the same for the next values; noted with them: rat brain δ opioid receptor binding; 10 nM solutions of the compounds; read-out: DOR binding Ki.
Consider `CCNC(=O)c1ccc(C(=C2CC3CCC(C2)N3CCc2ccccc2)c2ccc(CCC(=O)O)cc2)cc1` [Cpd 135], for which the Ki worked out at 1 nM.

One may read the Ki as a dissociation constant, usually derived from enzyme kinetics or from competition with a known ligand.
